{"source": "patent US8748182B2", "about": "“Mutant proteins and methods for producing them” (Heptares Therapeutics Limited, priority 2007, dated 2014)", "key": {"βAR34-424": {"target": "βAR34-424 (Meleagris gallopavo, UniProt P07700, C116L)", "description": "FIGS. 8A and 8B Saturation binding assays of membranes of βAR34-424 and βAR-m23. Binding assays were performed as described in “Methods” using [^3H]-dihydroalprenolol (DHA) as radioligand; βAR34-424 (a) and βAR-m23 (b). Scatchard plots are shown as insets along with the corresponding values for Bmax and KD. Data points are from duplicates of two independent experiments for each protein.\n[…] . This is consistent with the observation that none of the mutations in βAR-m23 correspond with amino acids believed to be implicated in ligand binding. […] . From a crystallisation perspective, this is an added bonus to thermostabilisation, because it is essential to have a conformationally homogeneous protein population for the production of diffraction-quality crystals.\n(§1) Receptors were eluted in 2×100 μl of buffer (0.4 M NaCl, 1 mM EDTA, 250 mM imidazole pH 8, plus the relevant detergent). […] .\nNon-specific binding was determined in the presence of 1 μM of s-propranolol. […] ."}, "[1]": {"assay": "Thermostability assay of detergent-solubilised βAR34-424 and mutants expressed in E. coli ([3H]-DHA binding after heating 30 min)"}, "[2]": {"assay": "Stability of βAR-m23 and βAR34-424 in different detergents (Ni-NTA partially purified)", "assay_type": "physicochemical", "conditions": "for active receptor after exchange into OG, NG or LDAO: purification at 6° C.", "description": "FIGS. 6A-6C Stability of βAR-m23 and βAR34-424 in five different detergents. […] Assays were carried out as described in the Methods and the Tm is shown at the intersection between the curves and the discontinuous line. Results are from duplicate measurements in a representative experiment performed in parallel.\nMembranes prepared from E. coli expressing βAR-m23 or βAR34-424 were solubilised in DDM, bound to Ni-NTA agarose then washed with either DDM, decylmaltoside (DM), octylglucoside (OG), lauryldimethylamine oxide (LDAO) or nonylglucoside (NG). […] In contrast, functional βAR-m23 was still present in all detergents and the Tm could be determined. As expected, the smaller detergents were considerably more denaturing than either DDM (Tm 52° C.) or DM (Tm 48° C.), with Tms of 25° C. (NG), 23° C. (LDAO) and 17° C. (OG). The difference in Tm between βAR-m23 and βAR34-424 is about 20° C., irrespective of whether the receptors were solubilised in either DDM or DM; […] . The selection strategy used for the generation of βAR-m23 was chosen deliberately to be based upon thermostability, because it is far simpler to apply than selecting for stability in detergents of increasing harshness.\nas §1\nSingle point binding assays contained 20 mM Tris pH 8, 0.4 M NaCl, 1 mM EDTA, 0.1% DDM (or corresponding detergent) with 50 nM [^3H]-DHA and 20-100 μg membrane protein in a final volume of 120 μl; equilibration was for 1 h at 4° C. Thermostability was assessed by incubating the binding assay mix, with or without [^3H]-DHA at the specified temperature for 30 minutes; reactions were placed on ice and [^3H]-DHA added as necessary and equilibrated for a further hour. […] Non-specific binding was determined in the presence of 1 μM of s-propranolol. […] Radioactivity was counted on a Beckman LS6000 liquid scintillation counter and data were analyzed by nonlinear regression using Prism software (GraphPad)."}}, "note": "Like-named read-outs stand apart in the source and are kept apart here."}
{"substance": "1-[4,6-propyl-^3H]-dihydroalprenolol [[^3H]-dihydroalprenolol]", "values": [{"measurement": "Kd", "setting": "βAR34-424; membranes, n=2, read-out: KD of [3H]-dihydroalprenolol", "value": "2.8 ± 0.1", "unit": "nM"}, {"measurement": "Kd", "setting": "βAR34-424; semipurified receptor, read-out: KD for [3H]-DHA binding", "value": 3.7, "unit": "nM"}]}
{"substance": "βAR34-424: truncated β1 adrenergic receptor from turkey, residues 34-424, C116L, C-terminal tag of 10 histidines; parent receptor", "values": [{"measurement": "antagonist binding remaining after heating, of the unheated control", "setting": "[1]; 32° C. for 30 min, [3H]-dihydroalprenolol", "value": "approximately 50%"}, {"measurement": "Tm (° C.)", "setting": "[1]; Table 1, heated 30 min without ligand, then [3H]-DHA binding, DDM-solubilised, E. coli, mean ± S.E. from duplicates", "value": "31.7 ± 0.1", "unit": "°C"}, {"measurement": "increase in Tm with bound antagonist versus without antagonist", "setting": "[1]; [3H]-DHA bound during the heating step", "value": 6, "unit": "°C"}, {"measurement": "active receptor after exchange into OG, NG or LDAO", "setting": "[2]", "value": "no active receptors"}, {"measurement": "active receptor after exchange into OG, NG or LDAO", "setting": "[2]; listed as βAR", "value": "not possible to measure any activity"}, {"measurement": "predicted Tm in NG", "setting": "[2]; extrapolated from the Tm difference", "value": "about 5 °C"}]}
